# Measured values taken from the supplement of paper PMC12645437, “Orthogonal IMiD-Degron Pairs Induce Selective Protein Degradation in Cells” (ACS Chemical Biology, 2025).
# This is one part of the list.
# B1: Q9UKT9 (peptide)
# chain: FKCEVCGAQFTQKGNLLRHIKL
# B2: Q9UKT9 (peptide)
# chain: LWCPICGFGCTQKGNLLRHIKL
# B3: Q9UKT9 (peptide)
# chain: FYCNICGAYFTQKGNLLRHIKL
# B4: Q9UKT9 (peptide)
# chain: FGCPICGHYFTQKGNLLRHIKL
# B5: Q9UKT9 (peptide)
# chain: FFCDQCGAHFTQKGNLLRHIKL
# B6: Q9UKT9 (peptide)
# chain: FACPICGAYFTQKGNLLRHIKL
# B7: Q9UKT9 (peptide)
# chain: FTCPICGRTFTQKGNLLRHIKL
# B8: Q9UKT9 (peptide)
# chain: FTCDICGAFFTQKGNLLRHIKL
# B9: Q9UKT9 (peptide)
# chain: FRCNICGAKFTQKGNLLRHIKL
# B10: Q9UKT9 (peptide)
# chain: FCCPICGRNFTQKGNLLRHIKL
# B11: Q9UKT9 (peptide)
# chain: LFCNQCGFGCTQKGNLLRHIKL
# B12: Q9UKT9 (peptide)
# chain: FGCDQCGAMFTQKGNLLRHIKL
# B13: Q9UKT9 (peptide)
# chain: FCCPICGRKFTQKGNLLRHIKL
# B14: Q9UKT9 (peptide)
# chain: FYCPICGAKFTQKGNLLRHIKL
# B15: Q9UKT9 (peptide)
# chain: LLCNQCGFQCTQKGNLLRHIKL
# B16: Q9UKT9 (peptide)
# chain: FVCNQCGAAFTQKGNLLRHIKL
# B17: Q9UKT9 (peptide)
# chain: LHCEICGFYCTQKGNLLRHIKL
# B18: Q9UKT9 (peptide)
# chain: FRCNQCGHAFTQKGNLLRHIKL
# B19: Q9UKT9 (peptide)
# chain: FNCPQCGAPFTQKGNLLRHIKL
# B20: Q9UKT9 (peptide)
# chain: FSCPQCGAHFTQKGNLLRHIKL
# B21: Q9UKT9 (peptide)
# chain: FWCPICGRVFTQKGNLLRHIKL
# B22: Q9UKT9 (peptide)
# chain: LGCPICGFKCTQKGNLLRHIKL
# B23: Q9UKT9 (peptide)
# chain: FVCPICGRDFTQKGNLLRHIKL
# B24: Q9UKT9 (peptide)
# chain: FGCEICGHYFTQKGNLLRHIKL
# B25: Q9UKT9 (peptide)
# chain: LICEICGFHCTQKGNLLRHIKL
# B26: Q9UKT9 (peptide)
# chain: FDCSVCGHGFTQKGNLLRHIKL
# B27: Q9UKT9 (peptide)
# chain: FDCPQCGADFTQKGNLLRHIKL
# B28: Q9UKT9 (peptide)
# chain: FFCPICGHEFTQKGNLLRHIKL
# B29: Q9UKT9 (peptide)
# chain: FLCDVCGANFTQKGNLLRHIKL
# B30: Q9UKT9 (peptide)
# chain: FFCNQCGRAFTQKGNLLRHIKL
# B31: Q9UKT9 (peptide)
# chain: FDCPVCGAGFTQKGNLLRHIKL
# B32: Q9UKT9 (peptide)
# chain: FCCEICGHGFTQKGNLLRHIKL
# B33: Q9UKT9 (peptide)
# chain: LMCPICGFHCTQKGNLLRHIKL
# B34: Q9UKT9 (peptide)
# chain: FCCPICGHQFTQKGNLLRHIKL
# B35: Q9UKT9 (peptide)
# chain: LQCNQCGFYCTQKGNLLRHIKL
# B36: Q9UKT9 (peptide)
# chain: LFCNQCGFVCTQKGNLLRHIKL
# B37: Q9UKT9 (peptide)
# chain: FKCEQCGATFTQKGNLLRHIKL
# B38: Q9UKT9 (peptide)
# chain: LVCPICGFRCTQKGNLLRHIKL
# B39: Q9UKT9 (peptide)
# chain: FRCDVCGAVFTQKGNLLRHIKL
# B40: Q9UKT9 (peptide)
# chain: LECEICGFHCTQKGNLLRHIKL
# B41: Q9UKT9 (peptide)
# chain: FFCPICGHVFTQKGNLLRHIKL
# B42: Q9UKT9 (peptide)
# chain: LVCNQCGFYCTQKGNLLRHIKL
# B43: Q9UKT9 (peptide)
# chain: FGCNVCGAEFTQKGNLLRHIKL
# B44: Q9UKT9 (peptide)
# chain: FWCEVCGAKFTQKGNLLRHIKL
# B45: Q9UKT9 (peptide)
# chain: FSCPICGRHFTQKGNLLRHIKL
# B46: Q9UKT9 (peptide)
# chain: LECPICGFCCTQKGNLLRHIKL
# B47: Q9UKT9 (peptide)
# chain: FVCEICGAWFTQKGNLLRHIKL
# B48: Q9UKT9 (peptide)
# chain: LMCEICGFWCTQKGNLLRHIKL
# B49: Q9UKT9 (peptide)
# chain: FCCNQCGHVFTQKGNLLRHIKL
# B50: Q9UKT9 (peptide)
# chain: FECEVCGAFFTQKGNLLRHIKL
# Molecular target: no compound (DMSO)
# Experiment: log2 fold change of degron read counts, EGFP-low vs EGFP+ sorted cells; higher = lower degron-EGFP level without compound (poor expression or instability)
# Details: compound: DMSO control; 18 h
# 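Further: jurkat cells carrying a lentiviral library of mutant zinc finger degrons fused to EGFP plus mCherry, mCherry+ cells FACS sorted, degron abundance counted by next-generation sequencing.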
row,Sequence,log2 fold change of degron read counts
1,B1,-3.02
2,B2,2.56
3,B3,0.509
4,B4,0.648
5,B5,-0.79
6,B6,0.973
7,B7,-0.476
8,B8,-0.49
9,B9,-1.02
10,B10,-0.102
11,B11,0.919
12,B12,-0.937
13,B13,-2.08
14,B14,-1.06
15,B15,0.421
16,B16,-0.279
17,B17,1.03
18,B18,-0.104
19,B19,-0.642
20,B20,-0.252
21,B21,0.742
22,B22,1.07
23,B23,-0.0299
24,B24,-0.101
25,B25,0.0919

row,Sequence,log2 fold change of degron read counts
1,B26,0.304
2,B27,-2.05
3,B28,-0.71
4,B29,-1.64
5,B30,0.476
6,B31,-1.24
7,B32,-0.988
8,B33,0.684
9,B34,0.0414
10,B35,0.855
11,B36,1.48
12,B37,-2.92
13,B38,0.711
14,B39,-1.26
15,B40,-1.27
16,B41,0.281
17,B42,1.02
18,B43,-2.14
19,B44,-1.26
20,B45,0.0325
21,B46,0.687
22,B47,-0.243
23,B48,1.08
24,B49,-0.524
25,B50,-1.55
